From the supplement of paper PMC4166925
± gives the standard deviation of the averaged measurements. Over roughly 33,000 sequences, “E-score (dimensionless, -0.5 to 0.5)” has its median near -0.046; the highest 2% begin near 0.36. The list shows a part of the results.

tested on: T1, SpTbr T-box DNA-binding domain (GST fusion); assay: PBM E-score of 8-mer (E-score (dimensionless, -0.5 to 0.5)); Tbr is Tbrain of the sea star Patiria miniata (Pm) or the sea urchin Strongylocentrotus purpuratus (Sp); higher = stronger binding preference; most listed sequences are background and not binding sites; conditions: the construct has about 5 more residues each side
T1 sequence: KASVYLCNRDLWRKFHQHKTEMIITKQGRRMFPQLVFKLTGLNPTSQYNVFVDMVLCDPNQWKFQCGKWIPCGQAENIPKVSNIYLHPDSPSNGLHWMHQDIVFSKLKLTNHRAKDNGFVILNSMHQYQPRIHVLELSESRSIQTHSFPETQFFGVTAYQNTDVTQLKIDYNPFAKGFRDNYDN
Outline: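 Universal Agilent oligonucleotide arrays, made double-stranded by primer extension, were incubated with 200 nM GST-fused Tbr T-box DNA-binding domain in PBS (pH 7.5). The protein was expressed in BL21 E. coli at 20 °C and purified by glutathione affinity chromatography. After scanning and quantification, the Universal PBM Analysis Suite assigned an enrichment E-score to each ungapped 8-mer, averaged over duplicate arrays.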

In order of falling “PBM E-score of 8-mer” value:
1. GGTGTGAC  0.4822 ± 0.0041
2. ATTCTCAC  0.415 ± 0.015
3. GTGTTAAA  0.395 ± 0.026
4. CGCGAAGA  0.371 ± 0.01
5. TACTCACA  0.371 ± 0.0028
6. CTGCGAAC  0.365 ± 0.0088
7. CTAGGTGA  0.356 ± 0.026
8. GGCGAGAA  0.3394 ± 0.00085
9. CAACACTC  0.335 ± 0.013
10. ACCGCGAA  0.313 ± 0.022
11. AAAGCGCG  0.308 ± 0.038
12. GTCTTCAC  0.28 ± 0.0046
13. CCCCGCAC  0.269 ± 0.0047
14. ACGCCGTG  0.26 ± 0.004
15. AAGCACAC  0.247 ± 0.013
16. ACGCACGC  0.24 ± 0.072
17. CGTCGTCA  0.234 ± 0.02
18. CTGTGATA  0.23 ± 0.055
19. ACTCTCGC  0.203 ± 0.033
20. AGGGTCAC  0.196 ± 0.03
21. ACGCGCGC  0.189 ± 0.056
22. CATTCTCG  0.183 ± 0.031
23. GATCGTGA  0.173 ± 0.054
24. CGACACGC  0.159 ± 0.07
25. GTTATCAA  0.138 ± 0.053
26. AAATCTCA  0.134 ± 0.053
27. AAACGCCT  0.132 ± 0.038
28. GCGCCGAA  0.126 ± 0.031
29. ATCAGCGA  0.125 ± 0.096
30. AGCCGTCA  0.121 ± 0.0059
31. ACAACTAC  0.111 ± 0.061
32. AAGTCTGC  0.11 ± 0.015
33. CACATAAA  0.109 ± 0.0063
34. GCGACGGA  0.103 ± 0.06
35. AAAAAGTT  0.103 ± 0.042
36. ACGGCACG  0.0963 ± 0.067
37. CGGTTGGC  0.0889 ± 0.011
38. AACGTGAA  0.0888 ± 0.008
39. ACCGCGCT  0.0777 ± 0.094
40. ACGTCATC  0.0752 ± 0.022
41. AGACCCAC  0.0705 ± 0.1
42. AATGGAGG  0.0705 ± 0.0038
43. ATCGATCG  0.0659 ± 0.059
44. AGATGTTA  0.0658 ± 0.027
45. AAACAGCA  0.0649 ± 0.055
46. ACATAATG  0.0621 ± 0.025
47. GCAGACAA  0.0601 ± 0.0044
48. ATATTACA  0.0587 ± 0.075
49. AGATCGTA  0.0572 ± 0.031
50. CCTGTAAA  0.0537 ± 0.052
51. CGAGTGAA  0.05115 ± 0.00042
52. AATGTAAC  0.0497 ± 0.024
53. CCACGTCA  0.0492 ± 0.0049
54. GAGGGTTA  0.0452 ± 0.071
55. AGCTAAGA  0.0389 ± 0.044
56. AGAAACGC  0.0384 ± 0.025
57. CTAGACCC  0.0375 ± 0.0037
58. AATTGCAG  0.0374 ± 0.022
59. ACTGTTGC  0.0339 ± 0.0018
60. GACATCCC  0.0314 ± 0.011
61. TGAATTCA  0.031 ± 0.053
62. AGCACGCC  0.0302 ± 0.026
63. GCGCTTGA  0.0279 ± 0.045
64. CCAATCCG  0.0266 ± 0.074
65. GAATCATC  0.0208 ± 0.0082
66. AAGGATAA  0.0197 ± 0.021
67. ATTGATAC  0.018 ± 0.01
68. CCATGCCG  0.0151 ± 0.00083
69. CTTACTGC  0.0114 ± 0.027
70. CTTGGTAA  0.00973 ± 0.026
71. TTGGACAA  0.00904 ± 0.046
72. GGAAGCGA  0.00717 ± 0.012
73. CGAGCGAA  0.00717 ± 0.0014
74. AACAAAGA  0.00197 ± 0.012
75. GTTAGGTA  -0.00017 ± 0.011
76. CAGATACG  -0.000715 ± 0.0066
77. CTCAACAA  -0.000735 ± 0.08
78. CCGCTTCA  -0.00373 ± 0.014
79. AAACCTGA  -0.00426 ± 0.071
80. CGTCTGCA  -0.00521 ± 0.008
81. ACTCAGCT  -0.00575 ± 0.016
82. CGCCCATA  -0.00613 ± 0.11
83. CTGGAGTA  -0.0122 ± 0.001
84. CGAAACTC  -0.0132 ± 0.026
85. GCCGTGTA  -0.0136 ± 0.0036
86. AGCAAATC  -0.0137 ± 0.0026
87. GCACGTAA  -0.0174 ± 0.035
88. CCACGAGC  -0.0192 ± 0.085
89. TCGAACCA  -0.0192 ± 0.024
90. ACGACCAG  -0.0248 ± 0.076
91. GGTCATAC  -0.0253 ± 0.019
92. GCAAGAGA  -0.0297 ± 0.023
93. AGCCACGG  -0.0343 ± 0.069
94. CATCTGAA  -0.0344 ± 0.037
95. ATTCGAGG  -0.0354 ± 0.033
96. AAAGGAGA  -0.0355 ± 0.033
97. ATTTTAGA  -0.0365 ± 0.11
98. CCAATAAC  -0.0379 ± 0.13
99. AGGAGGTA  -0.0388 ± 0.051
100. AACCATGG  -0.0415 ± 0.0021
101. CTGTGGTC  -0.0438 ± 0.0053
102. CGCTATAG  -0.0467 ± 0.031
103. ATAGACTG  -0.0471 ± 0.019
104. GAAATGTA  -0.0526 ± 0.065
105. GCCCCTCA  -0.0552 ± 0.047
106. GTCTTCCA  -0.0575 ± 0.036
107. TTGCCCAA  -0.0575 ± 0.067
108. AAAGCCGA  -0.0588 ± 0.082
109. TGTATTAA  -0.0603 ± 0.0022
110. GGACATCA  -0.0621 ± 0.043
111. ATAATTAC  -0.0638 ± 0.075
112. ACTGTAAT  -0.064 ± 0.02
113. CGATATTC  -0.0678 ± 0.032
114. GGAGAGGA  -0.0689 ± 0.018
115. TGTTTCAA  -0.0693 ± 0.047
116. CAGAGCCC  -0.0694 ± 0.033
117. ACGATAAT  -0.0718 ± 0.0031
118. GTAGTAAA  -0.0759 ± 0.019
119. CCGTGGGA  -0.0775 ± 0.076
120. GATCCTAA  -0.0791 ± 0.038
121. ATGGGTTA  -0.0808 ± 0.079
122. CGTATGTA  -0.0808 ± 0.044
123. ATTTCCGA  -0.0828 ± 0.028
124. CCAAGGTA  -0.0843 ± 0.0088
125. CCATGGGC  -0.0862 ± 0.0082
126. GAATCGTC  -0.0873 ± 0.068
127. AGGAACGA  -0.0882 ± 0.076
128. GCAATATA  -0.0884 ± 0.05
129. ATCTTTGG  -0.0893 ± 0.0079
130. CATGATCC  -0.093 ± 0.079
131. AAAGACTC  -0.0936 ± 0.0099
132. GAGTCAAA  -0.0961 ± 0.078
133. GGCAGAAC  -0.0963 ± 0.0052
134. CCGACTGC  -0.0987 ± 0.014
135. TAAATGTA  -0.0999 ± 0.021
136. CCCTGAAA  -0.103 ± 0.074
137. AGATATGA  -0.103 ± 0.069
138. CTATCGGA  -0.103 ± 0.016
139. GGCAGGTA  -0.105 ± 0.077
140. AAGGATCT  -0.106 ± 0.045
141. CATACCCC  -0.106 ± 0.031
142. TAGTCAGA  -0.109 ± 0.017
143. AATAGCTC  -0.111 ± 0.0098
144. ACTGAAGG  -0.113 ± 0.05
145. AGTCTAGC  -0.116 ± 0.018
146. ACAGGAGG  -0.116 ± 0.042
147. CTATCAAG  -0.119 ± 0.021
148. ATATCGTA  -0.119 ± 0.017
149. TGACCGCA  -0.119 ± 0.11
150. CATCTCAA  -0.12 ± 0.0027
151. ACCGGCTA  -0.122 ± 0.031
152. CTATCAGA  -0.122 ± 0.0019
153. GTCTGAGA  -0.124 ± 0.049
154. AATATAAA  -0.125 ± 0.022
155. CAGAATAC  -0.126 ± 0.034
156. ATCTGCAA  -0.127 ± 0.042
157. AGTCCGTG  -0.132 ± 0.013
158. GGCGGTTA  -0.133 ± 0.03
159. GGTCCAAA  -0.137 ± 0.0084
160. ACCTCTAA  -0.141 ± 0.051
161. AACTCATG  -0.141 ± 0.073
162. ATGGTAAT  -0.147 ± 0.0066
163. AGTTTCCC  -0.152 ± 0.024
164. AAGGACAG  -0.154 ± 0.025
165. GATCGGGC  -0.157 ± 0.062
166. CGTACCAG  -0.161 ± 0.064
167. ACGGAACA  -0.163 ± 0.11
168. ATATTAGA  -0.165 ± 0.0021
169. GCGACGTA  -0.165 ± 0.025
170. ATGTCCGG  -0.168 ± 0.037
171. GGCGGTCA  -0.174 ± 0.041
172. CTCGAAGA  -0.174 ± 0.085
173. CCTTGACC  -0.176 ± 0.12
174. ACTTTTAA  -0.178 ± 0.0036
175. CGCTCAGC  -0.178 ± 0.072
176. AGAGAGAT  -0.179 ± 0.024
177. CAGTGCAG  -0.179 ± 0.024
178. AGGCTGGG  -0.179 ± 0.012
179. ATGATGGA  -0.179 ± 0.029
180. AGCATTAA  -0.18 ± 0.02
181. CCGGAACG  -0.181 ± 0.022
182. AAACCCCA  -0.182 ± 0.086
183. AGATATAC  -0.184 ± 0.094
184. ATGTACAT  -0.185 ± 0.064
185. GGGGCCTA  -0.185 ± 0.063
186. CGTCGTAG  -0.185 ± 0.011
187. ACCCAGCC  -0.1851 ± 0.0011
188. CAGACTTC  -0.188 ± 0.011
189. CAGGCTGG  -0.19 ± 0.0044
190. AGCAGGAA  -0.193 ± 0.0089
191. CGTAGCCA  -0.196 ± 0.073
192. ACCGATTC  -0.197 ± 0.059
193. GCTCGTAC  -0.201 ± 0.033
194. GCCGACCC  -0.201 ± 0.12
195. CCTACCTA  -0.204 ± 0.043
196. ATAGAGCC  -0.212 ± 0.02
197. GTCGAGAC  -0.212 ± 0.029
198. CTAGAGCA  -0.213 ± 0.059
199. CTTATGGA  -0.213 ± 0.0064
200. CAAGCTTC  -0.215 ± 0.013
201. GGCCCGAA  -0.217 ± 0.058
202. TAGTTAAA  -0.218 ± 0.051
203. AAAGCCAA  -0.221 ± 0.037
204. ATCTAGAC  -0.23 ± 0.083
205. ATCCGCAG  -0.241 ± 0.013
206. AGATATGG  -0.243 ± 0.0085
207. ACTGCGGA  -0.25 ± 0.021
208. AATACATG  -0.259 ± 0.037
209. CTAATCCC  -0.263 ± 0.0044
210. GCTTGACC  -0.274 ± 0.028
211. ATCCCGGC  -0.278 ± 0.07
212. CTGAACTA  -0.28 ± 0.051
213. ATCTACTC  -0.281 ± 0.021
214. GACTTCCA  -0.284 ± 0.042
215. GAGGGTCC  -0.294 ± 0.0065
216. CCAGAGGG  -0.31 ± 0.0048
217. ATCCGAAT  -0.313 ± 0.019
218. ACCGGCTG  -0.341 ± 0.076
219. AGTCAGGC  -0.353 ± 0.006
